# From PMC4336329 (PLoS ONE, 2015)
# In all, about 310,000 compounds went through this assay and about 2,200 (0.71%) showed an effect of 50% or more. Effects have a minus sign here. The list shows a part of the results.
# Biological target: human ether-à-go-go-related gene (hERG) potassium channel (human, UniProt Q12809)
# Experiment: primary screen, population patch clamp on CHO cells stably expressing hERG
# human ether-à-go-go-related gene (hERG) potassium channel, sequence (Q12809 whole entry, looked up): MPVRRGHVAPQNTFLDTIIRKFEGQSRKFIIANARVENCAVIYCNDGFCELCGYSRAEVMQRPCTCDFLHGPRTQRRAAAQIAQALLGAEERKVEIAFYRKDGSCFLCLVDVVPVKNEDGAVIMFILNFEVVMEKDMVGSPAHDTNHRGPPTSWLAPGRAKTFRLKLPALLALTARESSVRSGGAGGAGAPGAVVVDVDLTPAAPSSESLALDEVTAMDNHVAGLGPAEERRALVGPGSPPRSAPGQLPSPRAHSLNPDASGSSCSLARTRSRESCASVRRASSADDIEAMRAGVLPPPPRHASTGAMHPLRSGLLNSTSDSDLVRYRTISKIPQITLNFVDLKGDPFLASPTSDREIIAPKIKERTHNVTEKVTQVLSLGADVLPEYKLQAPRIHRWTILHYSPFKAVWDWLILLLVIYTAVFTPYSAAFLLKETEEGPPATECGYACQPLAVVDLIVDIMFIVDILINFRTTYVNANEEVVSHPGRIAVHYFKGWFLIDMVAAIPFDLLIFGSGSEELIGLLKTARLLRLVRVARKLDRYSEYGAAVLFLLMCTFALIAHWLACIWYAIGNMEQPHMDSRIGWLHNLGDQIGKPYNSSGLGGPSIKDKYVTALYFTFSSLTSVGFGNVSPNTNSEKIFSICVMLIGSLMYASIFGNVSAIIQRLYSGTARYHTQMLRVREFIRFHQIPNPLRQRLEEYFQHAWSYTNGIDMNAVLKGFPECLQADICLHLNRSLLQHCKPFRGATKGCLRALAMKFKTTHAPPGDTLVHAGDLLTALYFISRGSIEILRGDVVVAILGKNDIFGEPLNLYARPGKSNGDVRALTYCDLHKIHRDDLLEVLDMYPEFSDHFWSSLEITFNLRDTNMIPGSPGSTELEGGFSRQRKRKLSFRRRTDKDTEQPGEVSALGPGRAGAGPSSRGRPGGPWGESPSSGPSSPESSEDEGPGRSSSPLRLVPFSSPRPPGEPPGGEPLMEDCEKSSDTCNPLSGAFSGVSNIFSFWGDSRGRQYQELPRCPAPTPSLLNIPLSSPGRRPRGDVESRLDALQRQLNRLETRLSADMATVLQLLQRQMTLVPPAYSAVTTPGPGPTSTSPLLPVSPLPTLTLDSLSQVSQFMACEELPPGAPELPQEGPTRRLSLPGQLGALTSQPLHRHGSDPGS
row,SMILES,"hERG current change (%, negative = inhibition) at 1uM"
1,Cc1ccc2nc(NC(=O)Cc3cccs3)sc2c1,3.4%
2,CCCCCC(=O)Nc1ccc(S(=O)(=O)Nc2nccc(C)n2)cc1,12%
3,CCOc1ccc2c(c1)C(C)=CC(C)(C)N2,14.7%
4,COc1ccc(CN2CCC(C(=O)c3cccc(Cl)c3)CC2)cc1,-66.8%
5,Cc1ccc(C(=O)COC(=O)CCc2nc3ccccc3[nH]c2=O)cc1C,18.5%
6,CCN1CCc2nc3ccccc3c(C(=O)Nc3ccc(NC(C)=O)cc3)c2C1,12.4%
7,NC(=O)C1(c2ccccc2)CCOCC1,15.5%
8,O=C(C1CCN(S(=O)(=O)c2ccc(F)cc2)CC1)N1CCOCC1,17.6%
9,Cc1ccc(-c2c(C(=O)N/N=C/c3ccc(OC(C)C)cc3)nnn2-c2nonc2N)cc1,6.6%
10,COc1ccc2c(c1)CC(=O)NC=C2,5.32%
11,CCCN1Cc2cccc(C(=O)N3CCN(c4ccc(OC)cc4)CC3)c2C1=O,-0.503%
12,COc1ccc(OC)c(N(C)S(=O)(=O)c2cc3c(cc2C)NC(=O)CO3)c1,12.2%
13,COc1ccc(C(CCN2CCOCC2)c2c(OC)cc(OC)c3c(C)cc(=O)oc23)cc1 (stereo not shown),-32.6%
14,CCN(CC)S(=O)(=O)c1cccc(NC(=O)CCNC(=O)c2ccc([N+](=O)[O-])cc2)c1,-11.1%
15,CCCOc1ccc(N2C(=O)CC(N(CCOC34CC5CC(CC(C5)C3)C4)C(C)=O)C2=O)cc1 (stereo not shown),3.87%
16,CC(=O)Nc1ccc(C(=O)Nc2nnc(CCc3ccccc3)s2)cc1,12.3%
17,O=C(Cc1ccccc1F)Nc1ccc(Cl)nc1,2.16%
18,Cc1cc(OCC(=O)N2CCN(c3ncccn3)CC2)ccc1Cl,5.91%
19,Cc1cc2cc(CNC(=O)c3ccc4c(c3)OCO4)ccc2[nH]1,-1.16%
20,CCc1nnc(NC(=O)C(=O)NCCOC(=O)c2ccccc2)s1,20%
21,COC(=O)c1cn(C)c2ccc(S(=O)(=O)N3CC(C)CC(C)C3)cc2c1=O (stereo not shown),-1.16%
22,CC1=C(C/C(C)=C/c2ccccc2)/C(=C/CO)[C@@H]2OC(=O)O[C@]2(C)C12CC2,14.7%
23,COc1cccc(OCc2cc(C(=O)N3CCC(C(O)C(C)C)CC3)no2)c1 (stereo not shown),2.91%

row,SMILES,"hERG current change (%, negative = inhibition) at 1uM"
1,CCn1c(SCC(=O)Nc2ccc3c(c2)OCCO3)nnc1C1CC1,8.65%
2,CCCC(=O)Nc1ccccc1NC(=O)CN(C)S(=O)(=O)c1ccc(C)cc1,5.65%
3,Cc1cnc(NC(=O)C2CCC(C(C)(C)C)CC2)s1 (stereo not shown),14.2%
4,CCCc1ccc(C(=O)CCC(=O)O)cc1,3.47%
5,Cc1ccc(C(=O)CNc2ccc(C)c(Cl)c2)cc1,9.8%
6,O=C(Nc1ccc(N2CCN(C(=O)c3ccc(Cl)cc3)CC2)cc1)c1ccc(Br)o1,-32.4%
7,Clc1ccc(-n2nnc(-c3cccnc3Cl)n2)cc1Cl,19.9%
8,Cc1ccc(C)n1-c1ccccc1N,6.72%
9,COC(=O)c1ccc(C)c(-n2c(C)cc(C=O)c2C)c1,15.7%
10,CN(C)/C=C1\NC(=S)N(c2ccc(Cl)cc2)C1=O,4.63%
11,Cc1ccc(C(=O)NCCc2nnc(SCC(=O)Nc3cccc(C(=O)O)c3)n2C)cc1,7.02%
12,COC(CNS(=O)(=O)c1ccc(S(=O)(=O)NC2CC2)cc1)OC,20.2%
13,O=C(COc1ccc(Cl)cc1)Nc1ccc2c(c1)OCO2,17.8%
14,Cc1cccc(N2CCN(Cc3nc(-c4ccccc4Cl)oc3C)CC2)n1,11.3%
15,O=C(Nc1ccccc1Cl)Oc1ccc(-c2ccccc2)cc1,5.71%
16,O=C(Nc1cccc(NC(=O)c2cccc(F)c2)c1)c1ccccc1,-4.32%
17,COc1ccc(C2C(C(=O)c3ccccc3)=C(C)Nc3nc4ccccc4n32)c(OC)c1 (stereo not shown),19.3%
18,Cc1ccc(S(=O)(=O)N2CCN(S(=O)(=O)N3CCOCC3)CC2)cc1,5.71%
19,O=C(NCc1ccccc1)c1c(F)c(F)c(F)c(F)c1F,10%
20,CC(C)c1ccc(Oc2cccc(C(=O)/C(C#N)=C/N(C)C)c2)cc1,5.74%
21,O=C(CN1CCc2ccccc2C1)Nc1cc(S(=O)(=O)N2CCOCC2)ccc1N1CCOCC1,7.46%
22,N=C1C(c2nc3ccccc3s2)=C(O)CN1CCCO,-8.45%
23,Cc1cc(C(=O)O)cc(S(=O)(=O)N2CCOCC2)c1C,4.46%

row,SMILES,"hERG current change (%, negative = inhibition) at 1uM"
1,CCCCNCc1cc(OCC)c(OCC(N)=O)cc1Br,3.45%
2,CCOc1nc2cnccc2n(CC(=O)Nc2ccc(C)c(C)c2)c1=O,14.2%
3,Cn1c(N2CCNCC2)nc2ccccc21,-0.492%
4,Cc1ccc(C23CC4CC(CC(C(=O)NC(C)C(N)=O)(C4)C2)C3)cc1 (stereo not shown),4.87%
5,Cc1nn(-c2ccc(Cl)cc2)c(=O)c2ccccc12,8.78%
6,O=C(CCS(=O)(=O)c1cccs1)Nc1ccc(C(=O)NCc2ccccc2)cc1,14%
7,Cc1ccc2c(CC(=O)NCc3cccs3)coc2c1,6.97%
8,CNC(=O)c1c(NC(=O)C2=COCCO2)sc2c1CCC(C)C2 (stereo not shown),13%
9,O=C1CN(C(=O)COC(=O)CNC(=O)c2ccccc2)c2ccccc2N1,13.9%
10,Cc1nc(-c2ccccc2)sc1-c1n[nH]c(=S)n1C,21.8%
11,COc1cc(/C=C/C(=O)O)cc(OC)c1,-0.702%
12,CCOC(=O)[C@@H]1[C@H]2COc3cc(OC)ccc3[C@H]2N2C(=O)N(c3ccc(C)cc3)C(=O)[C@@]12C,12.6%
13,O=C(Nc1cccc(Cl)c1)Nc1nnc(-c2ccncc2)s1,1.77%
14,Cc1ccc(-c2n[nH]c(=O)c3ccccc23)cc1S(=O)(=O)N(C)CCO,4.26%
15,N=c1c2ccccc2nnn1-c1cccc(C(F)(F)F)c1,9.05%
16,O=c1[nH]snc1N1CCOCC1,13.2%
17,O=C(C[n+]1cc(-c2ccc(Cl)cc2)n2c1CCC2)Nc1nc(-c2ccccc2)cs1.[Cl-],13.4%
18,CCOC(=O)C1CCCN(Cc2cn(C)nc2-c2ccc3c(c2)OCCO3)C1 (stereo not shown),6.35%
19,Cc1nc(C)c(C(=O)C2=C(O)C(=O)N(CCN(C)C)C2c2ccco2)s1 (stereo not shown),-2.74%
20,O=C(O)C1C2CCC(O2)C1C(=O)Nc1cccc(F)c1 (stereo not shown),9.03%
21,C/C(=C\c1ccc2c(c1)OCO2)C(=O)c1c(C)cc(C)[nH]c1=O,6.85%
22,O=C(NCC1CCCN(C(=O)c2cc(Cl)ccc2F)C1)c1ccc(F)cc1 (stereo not shown),15.3%
23,COc1ccc(OC)c(C2C(C(=O)c3ccco3)=C(O)C(=O)N2CC2CCCO2)c1 (stereo not shown),13.7%

row,SMILES,"hERG current change (%, negative = inhibition) at 1uM"
1,CC(C)C[C@H](NC(=O)N1CCn2c1nc1ccccc12)C(=O)NCc1ccco1,9.59%
2,CCCCC(CCC(=O)Nc1nccs1)C(=O)O (stereo not shown),10.2%
3,COc1ccc(C)cc1NC(=S)N1CCN(c2ncccn2)CC1,3.21%
4,O=C(c1cccc2nccnc12)N1CCCC(Nc2ccc(F)c(F)c2)C1 (stereo not shown),9.5%
5,O=C(NCC(=O)N1CCCC1)c1ccc(Cl)cc1,7.65%
6,Cc1c(C(=O)N2CCN(C(=O)c3ccco3)CC2)sc2nc(-c3ccc(F)cc3)cn12,-56.7%
7,CCCc1nc(NCCCOCC)c2nnn(Cc3ccccc3)c2n1,10.6%
8,CCC(C)NC(=O)CNC(=O)c1nn(-c2ccc(OC)cc2)c(=O)c2ccccc12 (stereo not shown),12.3%
9,Cc1cc(N2CCN(C(=O)Nc3ccc(F)cc3F)CC2)c2ccccc2n1,-27.5%
10,Cc1ccc(C)c(OCC(=O)NC2CCCCCC2)c1,11.7%
11,CC(=O)Nc1nc(-c2cccc3ccccc23)cs1,7.5%
12,COc1ccc(C(=O)Nn2c(CC(C)C)nc3cc(Cl)ccc3c2=O)c(OC)c1,13.7%
13,O=C(/C=C/c1ccco1)NC1=NCCS1,9.82%
14,Cc1ccnc(NC(=O)C(C)N2C(=O)c3ccccc3C2=O)c1 (stereo not shown),11.3%
15,COc1ccc(C(=O)NCc2cccnc2)cc1S(=O)(=O)N1CCOCC1,11.3%
16,COc1ccc(C2C3=C(CC(c4ccco4)CC3=O)Nc3ccccc3N2C(C)=O)cc1 (stereo not shown),7.19%
17,c1ccc(CCc2nc(-c3ccncc3)no2)cc1,11.3%
18,O=C(OCC(=O)N1CCCc2ccccc21)c1cccnc1Cl,4.03%
19,C#CCn1c(=NC(=O)c2ccc(Br)s2)sc2cccc(OC)c21,18.1%
20,Br.CCOc1ccc(S(=O)(=O)NN2Cc3ccccc3C2=N)cc1,4.62%
21,O=C(C1=COCCO1)N1CCN(C(c2ccccc2)c2ccccc2)CC1,2.9%
22,Cc1ccc(/C=C2\C(=O)Nc3ccccc32)o1,-0.451%
